Source: a compilation of properties of binary mixtures (doi:10.1021/acs.jced.2c00613)
Some of these densities may be calculated back from excess volumes.

Assay: xn = mol fraction of the nth substance listed
Conditions: 100 kPa

CN1CCN(C)C1=O + O
Conditions | mass density [kg/m3]
283.15 K, x1 = 0.0501 | 1027
283.15 K, x1 = 0.1 | 1048
283.15 K, x1 = 0.1801 | 1069
283.15 K, x1 = 0.2598 | 1079
283.15 K, x1 = 0.339 | 1082
283.15 K, x1 = 0.4952 | 1080
283.15 K, x1 = 0.7413 | 1073
283.15 K, x1 = 0.8184 | 1070
283.15 K, x1 = 0.899 | 1068
283.15 K, x1 = 0.9488 | 1066
288.15 K, x1 = 0.1801 | 1065
288.15 K, x1 = 0.2598 | 1074
288.15 K, x1 = 0.339 | 1077
288.15 K, x1 = 0.4201 | 1077
288.15 K, x1 = 0.4952 | 1076
288.15 K, x1 = 0.5807 | 1073
288.15 K, x1 = 0.6594 | 1071
288.15 K, x1 = 0.7413 | 1068
288.15 K, x1 = 0.8184 | 1066
288.15 K, x1 = 0.899 | 1063
288.15 K, x1 = 0.9488 | 1062
288.15 K, x1 = 1 | 1060
293.15 K, x1 = 0.0501 | 1023
293.15 K, x1 = 0.1 | 1042
293.15 K, x1 = 0.1801 | 1061
293.15 K, x1 = 0.339 | 1073
293.15 K, x1 = 0.4201 | 1072
293.15 K, x1 = 0.4952 | 1071
293.15 K, x1 = 0.5807 | 1069
293.15 K, x1 = 0.6594 | 1066
293.15 K, x1 = 0.8184 | 1061
293.15 K, x1 = 0.899 | 1059
293.15 K, x1 = 0.9488 | 1057
293.15 K, x1 = 1 | 1056
298.15 K, x1 = 0.0501 | 1021
298.15 K, x1 = 0.1801 | 1057
298.15 K, x1 = 0.2598 | 1065
298.15 K, x1 = 0.339 | 1068
298.15 K, x1 = 0.4201 | 1068
298.15 K, x1 = 0.4952 | 1066
298.15 K, x1 = 0.5807 | 1064
298.15 K, x1 = 0.6594 | 1062
298.15 K, x1 = 0.7413 | 1059
298.15 K, x1 = 0.8184 | 1057
298.15 K, x1 = 0.899 | 1054
298.15 K, x1 = 0.9488 | 1053
303.15 K, x1 = 0.0501 | 1021
303.15 K, x1 = 0.1 | 1039
303.15 K, x1 = 0.1801 | 1057
303.15 K, x1 = 0.2598 | 1065
303.15 K, x1 = 0.339 | 1068
303.15 K, x1 = 0.4201 | 1068
303.15 K, x1 = 0.4952 | 1066
303.15 K, x1 = 0.5807 | 1064
303.15 K, x1 = 0.7413 | 1059
303.15 K, x1 = 0.8184 | 1057
303.15 K, x1 = 0.9488 | 1053
303.15 K, x1 = 1 | 1052
308.15 K, x1 = 0.0501 | 1015
308.15 K, x1 = 0.1 | 1032
308.15 K, x1 = 0.1801 | 1048
308.15 K, x1 = 0.2598 | 1056
308.15 K, x1 = 0.339 | 1058
308.15 K, x1 = 0.4952 | 1057
308.15 K, x1 = 0.6594 | 1052
308.15 K, x1 = 0.7413 | 1050
308.15 K, x1 = 0.8184 | 1048
308.15 K, x1 = 0.899 | 1045
308.15 K, x1 = 0.9488 | 1044
313.15 K, x1 = 0.1 | 1028
313.15 K, x1 = 0.1801 | 1044
313.15 K, x1 = 0.2598 | 1051
313.15 K, x1 = 0.339 | 1054
313.15 K, x1 = 0.4201 | 1054
313.15 K, x1 = 0.4952 | 1052
313.15 K, x1 = 0.5807 | 1050
313.15 K, x1 = 0.7413 | 1045
313.15 K, x1 = 0.8184 | 1043
313.15 K, x1 = 0.899 | 1041
313.15 K, x1 = 1 | 1038
318.15 K, x1 = 0.0501 | 1010
318.15 K, x1 = 0.1 | 1025
318.15 K, x1 = 0.339 | 1049
318.15 K, x1 = 0.4201 | 1049
318.15 K, x1 = 0.4952 | 1047
318.15 K, x1 = 0.5807 | 1045
318.15 K, x1 = 0.6594 | 1043
318.15 K, x1 = 0.8184 | 1039
318.15 K, x1 = 0.899 | 1037
318.15 K, x1 = 0.9488 | 1035
318.15 K, x1 = 1 | 1034
323.15 K, x1 = 0.0501 | 1007
323.15 K, x1 = 0.1 | 1021
323.15 K, x1 = 0.1801 | 1035
323.15 K, x1 = 0.2598 | 1042
323.15 K, x1 = 0.4201 | 1044
323.15 K, x1 = 0.4952 | 1043
323.15 K, x1 = 0.7413 | 1036
323.15 K, x1 = 0.8184 | 1034
323.15 K, x1 = 0.899 | 1032
323.15 K, x1 = 0.9488 | 1031
323.15 K, x1 = 1 | 1029
328.15 K, x1 = 0.0501 | 1004
328.15 K, x1 = 0.1 | 1017
328.15 K, x1 = 0.1801 | 1030
328.15 K, x1 = 0.2598 | 1037
328.15 K, x1 = 0.339 | 1039
328.15 K, x1 = 0.4201 | 1039
328.15 K, x1 = 0.4952 | 1038
328.15 K, x1 = 0.5807 | 1036
328.15 K, x1 = 0.6594 | 1034
328.15 K, x1 = 0.7413 | 1032
328.15 K, x1 = 0.8184 | 1030
328.15 K, x1 = 0.899 | 1028
328.15 K, x1 = 0.9488 | 1026
328.15 K, x1 = 1 | 1025
333.15 K, x1 = 0.0501 | 1000
333.15 K, x1 = 0.1 | 1013
333.15 K, x1 = 0.1801 | 1026
333.15 K, x1 = 0.2598 | 1032
333.15 K, x1 = 0.339 | 1034
333.15 K, x1 = 0.4952 | 1033
333.15 K, x1 = 0.5807 | 1031
333.15 K, x1 = 0.6594 | 1029
333.15 K, x1 = 0.7413 | 1027
333.15 K, x1 = 0.899 | 1023
333.15 K, x1 = 0.9488 | 1022
333.15 K, x1 = 1 | 1021
338.15 K, x1 = 0.0501 | 997
338.15 K, x1 = 0.1 | 1009
338.15 K, x1 = 0.1801 | 1021
338.15 K, x1 = 0.2598 | 1027
338.15 K, x1 = 0.339 | 1029
338.15 K, x1 = 0.4201 | 1029
338.15 K, x1 = 0.4952 | 1028
338.15 K, x1 = 0.5807 | 1026
338.15 K, x1 = 0.6594 | 1025
338.15 K, x1 = 0.7413 | 1023
338.15 K, x1 = 0.8184 | 1021
338.15 K, x1 = 0.899 | 1019
338.15 K, x1 = 0.9488 | 1018
338.15 K, x1 = 1 | 1016
343.15 K, x1 = 0.0501 | 993
343.15 K, x1 = 0.1 | 1005
343.15 K, x1 = 0.1801 | 1017
343.15 K, x1 = 0.2598 | 1022
343.15 K, x1 = 0.339 | 1024
343.15 K, x1 = 0.4201 | 1024
343.15 K, x1 = 0.4952 | 1023
343.15 K, x1 = 0.5807 | 1022
343.15 K, x1 = 0.6594 | 1020
343.15 K, x1 = 0.7413 | 1018
343.15 K, x1 = 0.8184 | 1016
343.15 K, x1 = 0.899 | 1014
343.15 K, x1 = 0.9488 | 1013
343.15 K, x1 = 1 | 1012

O + CN1CCN(C)C1=O
x2 = 0
Conditions | mass density [kg/m3]
283.15 K | 1000
293.15 K | 998
313.15 K | 992
318.15 K | 990
323.15 K | 988
328.15 K | 986
333.15 K | 983
338.15 K | 981
343.15 K | 978
